Results on one molecule are retold here after US20070264623A1, “Nanosensors” (PRESIDENT AND FELLOWS OF HARVARD COLLEGE, priority 2004, published 2007).

The assay addresses T1, Abl tyrosine kinase (Abelson murine leukemia virus, UniProt P00521).
T1 sequence (P00521 128-379 limits assumed): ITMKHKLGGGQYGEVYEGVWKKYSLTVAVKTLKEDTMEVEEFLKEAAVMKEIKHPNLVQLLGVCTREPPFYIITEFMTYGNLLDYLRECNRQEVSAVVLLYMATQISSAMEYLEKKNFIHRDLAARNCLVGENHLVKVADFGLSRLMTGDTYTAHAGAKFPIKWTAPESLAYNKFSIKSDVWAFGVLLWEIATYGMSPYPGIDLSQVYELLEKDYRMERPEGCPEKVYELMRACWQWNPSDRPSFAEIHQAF
The experiment in a line: ATP binding to Abl-modified SiNW FET device (conductance). The source says: To develop a general system for screening small molecule inhibitors to tyrosine kinases the Abl kinase was linked to the surface of SiNW (silicon nanowire) FETs and investigated the binding of ATP and competitive inhibition of ATP binding with organic molecules (FIG. 4C). FIG. 4C illustrates the detection of ATP binding and small molecule inhibition of binding using a SiNW sensor device. The tyrosine kinase Abl was covalently linked to the surface of a SiNW and then the conductance of the nanowire device was monitored to detect ATP binding and the competitive inhibition of ATP binding by Gleevec. In this way, it was possible to monitor in real-time the binding or inhibition of binding of the negatively charged ATP to Abl as a conductance change due to chemical gating.
SiNW FETs were prepared using procedures similar to those described above. […] The Abl protein was covalently-linked through lysine residues to SiNW FETs within an integrated microfluidic channel, washed with buffer and used without further modification or dehydration. […]
Regions 91, 92 and 93 correspond to 0.1, 3, and 20 nM ATP, respectively. […] The conductance of SiNW FETs was recorded using lock-in amplifier at 31 Hz and 30 mV modulation amplitude; the dc-bias voltage was zero. […]

Regarding `Nc1ncnc2c1ncn2[C@@H]1O[C@H](COP(=O)(O)OP(=O)(O)OP(=O)(O)O)[C@@H](O)[C@H]1O` [ATP, adenosine triphosphate], the “lowest ATP concentration at which binding to Abl is distinguished above background” value (Abl-modified SiNW device) is reported as at most 100 pM. Also, the Kd (estimated from the linear response region of delta-G vs. ATP concentration, Abl-modified SiNW, read-out: ATP binding constant) was around 0.1 µM.
